From PubChem BioAssay AID504339 (National Center for Advancing Translational Sciences (NCATS), 2011)
The whole screen tested about 390,000 compounds, of which about 17,000 (4.4%) were called active. The shares of active, inactive and inconclusive entries below differ from those in the screen. Calls come from the whole dose curve; as a rule, active = well fitted inhibition curve with a large enough effect; inconclusive = small, poorly fitted or top-dose-only effect; inactive = no such curve, though single readings can be large or run the other way. Potencies beside an inconclusive call are fits to weak or partial responses and may not hold up.

Molecular target: Lysine-specific demethylase 4A (Homo sapiens) (UniProt O75164)
Assay: qHTS Assay for Inhibitors of JMJD2A-Tudor Domain; note: nearly all actives have a fitted effect of over 50% in size
Details: AlphaScreen JMJD2A-Tudor / H3K4me3 peptide binding; activity change, negative = inhibition: at 114 µM (top of the series)
% is set by controls: 0 for no effect and ±100 for the full control effect; potency is the fitted concentration of half-maximal effect; tags give direction and shape of the fitted curve.

Sequence of UniProt O75164 (O75164 whole entry, looked up, the tested form may be a part): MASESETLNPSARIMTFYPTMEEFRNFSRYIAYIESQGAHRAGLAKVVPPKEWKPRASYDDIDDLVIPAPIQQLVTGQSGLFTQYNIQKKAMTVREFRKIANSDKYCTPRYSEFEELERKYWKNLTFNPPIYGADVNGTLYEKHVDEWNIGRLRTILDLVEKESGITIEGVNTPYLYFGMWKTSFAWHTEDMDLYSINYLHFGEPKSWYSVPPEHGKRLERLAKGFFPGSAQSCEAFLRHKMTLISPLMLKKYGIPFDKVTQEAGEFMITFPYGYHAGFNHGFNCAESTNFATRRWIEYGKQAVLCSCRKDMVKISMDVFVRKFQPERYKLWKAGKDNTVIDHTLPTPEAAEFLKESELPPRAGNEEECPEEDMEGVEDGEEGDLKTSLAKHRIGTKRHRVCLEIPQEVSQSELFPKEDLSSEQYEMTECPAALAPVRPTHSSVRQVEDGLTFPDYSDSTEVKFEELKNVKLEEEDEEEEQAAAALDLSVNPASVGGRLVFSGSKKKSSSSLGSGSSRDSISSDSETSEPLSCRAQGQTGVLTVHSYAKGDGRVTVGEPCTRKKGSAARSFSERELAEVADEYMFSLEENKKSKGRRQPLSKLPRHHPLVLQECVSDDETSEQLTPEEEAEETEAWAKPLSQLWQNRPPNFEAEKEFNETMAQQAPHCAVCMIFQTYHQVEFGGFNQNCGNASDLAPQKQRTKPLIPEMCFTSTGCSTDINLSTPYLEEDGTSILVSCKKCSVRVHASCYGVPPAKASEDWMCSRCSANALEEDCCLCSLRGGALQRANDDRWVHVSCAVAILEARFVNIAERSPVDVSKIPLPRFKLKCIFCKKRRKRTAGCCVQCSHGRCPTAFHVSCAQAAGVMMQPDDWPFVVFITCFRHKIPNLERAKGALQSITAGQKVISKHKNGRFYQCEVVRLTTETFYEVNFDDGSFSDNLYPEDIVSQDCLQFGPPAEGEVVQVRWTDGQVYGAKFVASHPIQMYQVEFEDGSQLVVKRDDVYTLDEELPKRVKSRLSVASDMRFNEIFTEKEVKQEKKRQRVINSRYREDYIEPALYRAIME

Compound | Potency | activity change, negative = inhibition
COc1ccc(S(=O)(=O)Nc2ccc(O)c3ccccc23)cc1 | active: 31.6 µM | 
c1cncc(CNc2ncnc3ccc(-c4cccnc4)cc23)c1 | inconclusive: 79.4 µM [inhibitor, single point] | 
Cn1cccc1/C=N/n1c(-c2ccco2)n[nH]c1=S | active: 20 µM | 
COC(=O)c1c(NC(=O)C2COc3ccccc3O2)sc2c1CCN(Cc1ccccc1)C2 (stereo not drawn) | inconclusive: 44.7 µM [inhibitor, single point] | 
O=C(O)c1ccc2c(=O)n(-c3ccccc3F)c(=S)[nH]c2c1 | inconclusive: 100 µM [inhibitor, single point] | 
CCCCNC(=O)c1cnc2sc(N3CCCCCC3)nn2c1=O | inactive | 
O=c1c2cc(Cl)ccc2[nH]c(=S)n1Cc1ccco1 | inactive | 
O=C(C(=O)N1CCCc2ccccc21)N1CCCc2ccccc21 | inactive | 
CCOc1ccccc1N1CCN(C(=S)NCc2ccc(Cl)cc2)CC1 | inactive | 
COc1ccc(-c2ccc3ncnc(NCc4ccc(C)o4)c3c2)cc1OC | inconclusive: 56.2 µM [inhibitor, partial curve] | 
O=C(Cn1nnc(-c2cc(C(F)(F)F)cc(C(F)(F)F)c2)n1)NNC(=S)Nc1ccc(Cl)cc1 | inconclusive: 56.2 µM [inhibitor, partial curve] | 
CCCOC(=O)CSc1nnc(-c2cc(OC)c(OC)c(OC)c2)o1 | inconclusive: 89.1 µM [inhibitor, single point] | 
COc1cc(OC)c(NC(=O)C(Cc2ccccc2)NS(=O)(=O)c2cccc3nsnc23)cc1Cl (stereo not drawn) | inconclusive: 8.91 µM [inhibitor, full curve, poor fit] | 
COc1ccc(/C=C/C(=O)c2cc3c(cc2N)OCO3)cc1 | active: 28.2 µM | 
Cc1ccc(S(=O)(=O)N2CCN(c3nc(-c4cncn4C)nc4ccccc34)CC2)cc1 | inconclusive: 17.8 µM [inhibitor, full curve] | 
CN1CCN(Cc2cccc(Oc3ccc(Cl)cc3)c2)CC1 | inactive | 
Cc1cc(-c2cc(C)c(N)cc2C)c(C)cc1N | inconclusive: 56.2 µM [inhibitor, partial curve] | 
COc1ccc(/C=C/C(=O)Nc2ccc(-c3nnc4n3CCCCC4)cc2)c(OC)c1 | inconclusive: 31.6 µM [inhibitor, partial curve] | 
N#CCC(=O)N/N=C\c1ccccc1OC/C=C/c1ccccc1 | inconclusive: 50.1 µM [inhibitor, partial curve] | 
COc1ccc(Cc2nnc(NN)[nH]c2=O)cc1OC | active: 2.51 µM | 
CCN1CCN(C(c2ccc(OC)c(OC)c2)c2nnnn2C(C)(C)C)CC1 (stereo not drawn) |  | inactive: -9.59% [at 11.4 µM]
Fc1ccc(OCCCn2ccnc2)cc1 | active: 44.7 µM | 
COC(=O)c1ccccc1-n1c(CCC(=O)O)ccc1-c1ccc(F)cc1 | inactive | 
S=c1[nH]nc(COc2ccccc2)n1Cc1ccccc1 | active: 89.1 µM | 
O=C(NCC(c1cccnc1)N1CCc2ccccc21)c1ccc(F)cc1 (stereo not drawn) | inactive | 

Compound | Potency | activity change, negative = inhibition
CCOc1ccc(NC(=O)N(C)CCc2c(C)nn(C)c2C)cc1 | inactive | 
COc1ccc2c(c1)cc(C(=O)N/N=C/c1c(O)c(C(=O)O)cc3ccccc13)n2C | inconclusive: 56.2 µM [inhibitor, partial curve] | 
COc1ccc(NC(=S)N(CCC(C)C)C2CCN(C(C)C)CC2)cc1 | inactive | 
O=c1c2ccccc2cnn1Cc1n[nH]c(=S)n1-c1ccc(F)cc1 | active: 6.31 µM | 
CC(=O)c1ccc(OCCN2CCOCC2)cc1 | inconclusive: 1 µM [inhibitor, full curve, poor fit] | 
CCc1ccc(NC(=O)CSc2nc(=O)n(Cc3ccncc3)c3c2CCC3)cc1 | inactive | 
Cc1snc(S(=O)(=O)/C(C#N)=N/Nc2ccc(C(F)(F)F)cc2)c1C#N | inconclusive: 50.1 µM [inhibitor, partial curve] | 
COc1cccc(C(=O)NCC2(c3ccc(OC)c(OC)c3)CCCC2)c1 | inactive | 
C[C@]12c3[nH]c4cc(-c5ccco5)ccc4c3CCN1C(=O)[C@@H](CC(=O)NCCC1=CCCCC1)C[C@@H]2C(=O)N1CCCCC1 | inconclusive: 39.8 µM [inhibitor, partial curve] | 
CC(Oc1ccc(F)cc1)C(=O)Nc1nc(-c2ccccn2)cs1 (stereo not drawn) | active: 35.5 µM | 
Cc1cccc(C2c3[nH]c4ccccc4c3CCN2C(=O)c2noc3c2CCCC3)n1 (stereo not drawn) | inconclusive: 25.1 µM [inhibitor, full curve, poor fit] | 
Nc1ccc2oc(-c3ccccc3Cl)cc(=O)c2c1O | inconclusive: 22.4 µM [inhibitor, full curve, poor fit] | 
CCOC(=O)N1CCc2c(sc(NCc3cccs3)c2C(=O)Nc2ccc(OC)cc2OC)C1 | active: 3.16 µM | 
O=C(O)c1c[nH]c2ccc([N+](=O)[O-])cc2c1=O | active: 79.4 µM | 
CCOCCN1CCN(c2c(C)c(C)nc3cc(-c4cc(OC)cc(OC)c4)nn23)CC1 | inconclusive: 11.2 µM [inhibitor, full curve] | 
COc1ccc(-c2nc3cccc(C)n3c2NCC2CCCO2)cc1O (stereo not drawn) | inconclusive: 39.8 µM [inhibitor, partial curve] | 
O=C(O)c1cc(NS(=O)(=O)c2ccc(N3CCCCC3)c([N+](=O)[O-])c2)cc(C(=O)O)c1 | inconclusive: 70.8 µM [inhibitor, single point] | 
O=C(O)c1ccc(N2CCN(c3ccc(Cl)cc3)CC2)c([N+](=O)[O-])c1 | inconclusive: 56.2 µM [inhibitor, partial curve] | 
CC1CCc2sc(C(=O)Nc3ccc(N4CCOCC4)cc3)cc2C1 (stereo not drawn) | inconclusive: 50.1 µM [inhibitor, partial curve] | 
Cc1ccc(C)c(OCCn2cc(/C=C(\C#N)C(=O)NCC3CCCO3)c3ccccc32)c1 (stereo not drawn) | inconclusive: 10 µM [inhibitor, partial curve] | 
COC(=O)c1ccccc1NC(=O)CSc1n[nH]c(-c2cccnc2)n1 | inconclusive: 39.8 µM [inhibitor, partial curve] | 
CC(C)(C)/C(O)=C/c1nc2ccccc2oc1=O | inactive | 
COc1ccc(-n2cnc3ccccc32)cc1 | inactive | 
O=C(/C=C/c1ccco1)N1CCN(C/C=C/c2ccccc2)CC1 | inconclusive: 56.2 µM [inhibitor, partial curve] | 
CC(C)Cc1c2c([nH]c(=S)c1C#N)CCCC2 | active: 56.2 µM | 

Compound | Potency | activity change, negative = inhibition
CSc1ccccc1C(=O)Nc1ccc(C)cc1C | inactive | 
Cc1c(NC(=O)CSCc2c(F)cccc2Cl)c(=O)n(-c2ccccc2)n1C | inactive | 
O=C(CSc1nc(-c2ccccc2)cs1)Nc1ccccc1[N+](=O)[O-] | inconclusive: 28.2 µM [inhibitor, single point] | 
Cc1oc(-c2ccc(C(=O)NCc3ccccc3Cl)cc2)nc1CN1CCc2ccccc21 | inconclusive: 28.2 µM [inhibitor, partial curve] | 
COc1cc(/C=C2\SC(N3CCc4ccccc4C3)=NC2=O)cc(OC)c1OC | inactive | 
CC(C)(CS(=O)(=O)[O-])NC(=O)CC[N+](C)(C)CCO | active: 3.16 µM | 
CCc1ccc(N2CSC3=C(C#N)C(c4cccs4)CC(=O)N3C2)cc1 (stereo not drawn) | active: 31.6 µM | 
CCOC(=O)N1CCN(CC(=O)Nc2sc(CC)cc2C(=O)c2ccc(OC)cc2)CC1 | inconclusive: 35.5 µM [inhibitor, partial curve] | 
Cc1ccc(Cn2ncc3c(NN)ncnc32)cc1 | inconclusive: 89.1 µM [inhibitor, single point] | 
CCN(CC)CCN(C(=O)c1ccc2c(c1)CCCC2)c1nc2ccc(OC)cc2s1 | inconclusive: 39.8 µM [inhibitor, partial curve] | 
CC(=O)N(C(C)=O)c1nc2nc(C)cc(C)n2n1 | inconclusive: 63.1 µM [inhibitor, partial curve] | 
COc1cc(NC(C)CCc2ccccc2)cc(OC)c1OC (stereo not drawn) | active: 44.7 µM | 
C=CCn1c(COc2ccc(F)cc2)nnc1SCC(=O)NC(=O)NCc1ccco1 | inconclusive: 56.2 µM [inhibitor, partial curve] | 
Cn1c2ccccc2c2ccc3c(c21)C(=O)C=CC3=O | active: 15.8 µM | 
CSC(=S)N/N=C/c1c[nH]c2ccccc12 | inconclusive: 56.2 µM [inhibitor, partial curve] | 
CC(C)c1ccc(NC(=O)c2ccc3c(O)c(S(=O)(=O)c4ccccc4)c(=O)[nH]c3c2)cc1 | inconclusive: 56.2 µM [inhibitor, partial curve] | 
O=C(NCCCN1CCCC1=O)c1ccc2c(c1)NC(=O)C(N1CCOCC1)S2 (stereo not drawn) | inactive | 
c1ccc2c(c1)oc1c(N3CCN(Cc4ccc5c(c4)OCO5)CC3)ncnc12 | inconclusive: 39.8 µM [inhibitor, partial curve] | 
COc1ccc(C)cc1NC(=O)C(OC(=O)c1ccc([N+](=O)[O-])o1)c1ccccc1 (stereo not drawn) | inconclusive: 20 µM [inhibitor, partial curve] | 
COCCn1c(C)cc(C(=O)COC(=O)c2n[nH]c3ccccc23)c1C | inconclusive: 56.2 µM [inhibitor, partial curve] | 
O=c1c2ccccc2n2c(-c3ccccc3F)nnc2n1CCc1ccccc1 | inactive | 
CC(C)[C@@H](C(=O)OCC(=O)Nc1ccc2c(c1)OCO2)N1C(=O)c2ccccc2C1=O | inconclusive: 56.2 µM [inhibitor, partial curve] | 
CC(=O)N(C1=C(Cl)C(=O)c2ccccc2C1=O)c1ccc(C(=O)O)cc1 | inconclusive: 2 µM [inhibitor, full curve, poor fit] | 
